The whole screen tested about 410,000 compounds, of which about 6,400 (1.6%) were called active. This list was built around the results that the source calls inconclusive (neither active nor inactive); the mix of calls is not that of the screen. Calls follow the shape of the dose curve; as a rule, active = well fitted inhibition curve with a large enough effect; inconclusive = small, poorly fitted or top-dose-only effect; inactive = no such curve, though single readings can be large or run the other way. Potencies of inconclusive entries are left out as doubtful fits.
Molecular target: Glucagon-like peptide 1 receptor (Homo sapiens) (UniProt P43220)
Experiment: qHTS of GLP-1 Receptor Inverse Agonists (Inhibition Mode); also: nearly all actives have a fitted effect of over 55% in size
Conditions: HEK293 GLP-1R CRE-luciferase, luminescence, 24 h, GLP-1R form is constitutively active; activity change, negative = inhibition: at 38.3 µM (top of the series) unless noted
Outline: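 Assay principle: reduced luminescence from a cAMP-responsive reporter in HEK293 cells co-expressing a constitutively active GLP-1R. Conditions: 24 hr compound incubation, 37 deg C, 5% CO2.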
% is scaled to controls: 0 for no effect and ±100 for the full control effect; potency is read from the fitted curve at half-maximal effect; tags tell the direction and shape of the fitted curve.

Chain of UniProt P43220 (P43220 whole entry, looked up): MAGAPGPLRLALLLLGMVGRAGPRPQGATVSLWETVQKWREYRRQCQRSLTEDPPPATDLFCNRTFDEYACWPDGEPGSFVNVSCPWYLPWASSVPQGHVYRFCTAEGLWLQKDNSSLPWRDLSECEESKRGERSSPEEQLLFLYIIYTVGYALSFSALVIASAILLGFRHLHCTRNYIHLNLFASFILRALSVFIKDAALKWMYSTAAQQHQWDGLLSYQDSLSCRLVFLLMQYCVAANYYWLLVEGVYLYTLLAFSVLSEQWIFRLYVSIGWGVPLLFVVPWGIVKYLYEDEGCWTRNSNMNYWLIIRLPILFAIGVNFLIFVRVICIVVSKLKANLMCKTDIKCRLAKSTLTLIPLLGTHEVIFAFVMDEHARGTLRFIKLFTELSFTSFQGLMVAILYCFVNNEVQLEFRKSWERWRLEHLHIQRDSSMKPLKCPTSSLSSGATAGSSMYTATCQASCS

Q: How did the Potency turn out when `Cc1cccc2cc(CN(Cc3ccco3)C(c3nnnn3CCc3ccccc3)C(C)C)c(=O)[nH]c12` (stereo unspecified) was run?
A: inconclusive [inhibitor, partial curve, poor fit]

Q: With `CCC(=O)Nc1nc2ccc(S(C)(=O)=O)cc2s1` as the compound, how does the “activity change, negative = inhibition” value read?
A: inactive: 3.49%

Q: Which Potency does the source give for `COc1cccc(Oc2ccc(N/C=C/C(=O)C(C)(C)C)cc2)c1` here?
A: inconclusive [inhibitor, partial curve, poor fit]

Q: Which Potency does the source give for `CCc1cccc(C)c1NC(=O)CN(C)Cc1cccc(F)c1` here?
A: active: 8.91 µM

Q: How did the “activity change, negative = inhibition” value turn out when `CCOc1ccc(NC(=S)NC23CC4CC(CC(C4)C2)C3)cc1` was run?
A: inactive: 4.49%

Q: `Cc1ccc(N(CC(=O)Nc2ccc(F)cc2F)S(=O)(=O)c2cccs2)cc1` was tested. Which Potency did it give?
A: inconclusive [inhibitor, single point]

Q: How did the Potency turn out when `CN=C(Nc1ccc(Br)cc1)SC1CC(=O)N(c2ccc(OC)cc2)C1=O` (stereo unspecified) was run?
A: active: 11.2 µM

Q: Which Potency does the source give for `CC(C(=O)Nc1ccc2c(c1)OCCO2)n1nnc(-c2ccccc2)n1` (stereo unspecified) here?
A: inconclusive [inhibitor, partial curve, poor fit]

Q: With `CC(=O)Nc1cc(F)c2c(c1F)Cc1cc(F)ccc1-2` as the compound, how does the Potency read?
A: inconclusive [inhibitor, single point]

Q: How did the Potency turn out when `CC(=O)CC1c2cc(F)ccc2C=C(c2ccsc2)N1c1ccc(C#Cc2cncn2C)cc1` (stereo unspecified) was run?
A: inconclusive [inhibitor, partial curve, poor fit]

Q: For `CCOC(=O)c1ccc(NC(=S)NCCc2ccccc2)cc1`, which Potency is on record?
A: inconclusive [inhibitor, partial curve, poor fit]

Q: For `Cn1cc(CCCC(=O)NCc2cccc(Br)c2)c2ccccc21`, which Potency is on record?
A: inconclusive [inhibitor, single point]

Q: How did the Potency turn out when `Cc1ccc(C(O)c2nc3ccccc3n2C(C)C)cc1` (stereo unspecified) was run?
A: inconclusive [inhibitor, partial curve, poor fit]

Q: For `CCc1ccc(C(=O)NCc2ccc(Cl)cc2)cc1`, which “activity change, negative = inhibition” value is on record?
A: inactive: -2.69%

Q: How did the Potency turn out when `COc1ccc2[nH]c(C)c(CCNC(=S)Nc3cc(C)cc(C)c3)c2c1` was run?
A: inconclusive [inhibitor, single point]

Q: How did the “activity change, negative = inhibition” value turn out when `COc1ccc(-n2cc(-c3ccccc3)c3c(N4CCCC(C)C4)ncnc32)cc1` (stereo unspecified) was run?
A: inactive: -19.2%

Q: `CCc1nc2ccc(C(=O)NCc3ccccc3C)cc2nc1CC` was tested. Which “activity change, negative = inhibition” value did it give?
A: inactive: 1.78%

Q: How did the Potency turn out when `CN(C)S(=O)(=O)N1CCC(Oc2ccc(C(=O)N3CCCCCCC3)cc2)CC1` was run?
A: inconclusive [inhibitor, single point]

Q: `Cc1cc2c(cc1C)N1C(=O)c3cc4ccccc4cc3NC(=O)C1C(=O)N2` (stereo unspecified) was tested. Which “activity change, negative = inhibition” value did it give?
A: inactive: 9.55%

Q: For `CCCNC(=O)c1ccc(-c2nc3ccccc3s2)s1`, which Potency is on record?
A: inconclusive [inhibitor, partial curve, poor fit]

Q: Which Potency does the source give for `Brc1ccccc1OCCCCn1cnc2ccccc21` here?
A: inconclusive [inhibitor, single point]

Q: Which Potency does the source give for `CC(NCC1(N2CCOCC2)CCCCC1)C(=O)Nc1ccc(Cl)cc1Cl` (stereo unspecified) here?
A: inconclusive [inhibitor, single point]

Q: With `COc1ccc(CCNC(=O)c2ccc3c(c2)N(Cc2ccccc2Cl)C(=O)c2ccccc2S3)cc1OC` as the compound, how does the “activity change, negative = inhibition” value read?
A: inactive: -20.3%

Q: With `Cc1ccc(CSCC(=O)N(C)CC(=O)Nc2cccc(F)c2)cc1` as the compound, how does the Potency read?
A: inconclusive [inhibitor, single point]

Q: For `CC(O)(c1cccc(F)c1)c1nc(-c2cccc(C#N)c2)cs1` (stereo unspecified), which Potency is on record?
A: inconclusive [inhibitor, partial curve]

Q: How did the Potency turn out when `Cc1ccc(/C=C/C(=O)c2ccccc(=O)c2O)c(C)c1` was run?
A: inconclusive [inhibitor, full curve, poor fit]

Q: Which Potency does the source give for `C=C1C[C@@H]2C[C@@H]2CN(S(=O)(=O)c2ccc(C)cc2)[C@@H]1COCc1ccccc1` here?
A: inconclusive [inhibitor, partial curve]

Q: For `COc1ccc(C(=O)N/N=C2\CCS(=O)(=O)c3ccc(F)cc32)cc1OC`, which Potency is on record?
A: inconclusive [inhibitor, partial curve, poor fit]

Q: How did the “activity change, negative = inhibition” value turn out when `CCOc1cc(S(=O)(=O)NCc2ccco2)c(OCC)cc1-n1cnnn1` was run?
A: inactive: 31.9%

Q: With `CN(C)c1ncc(S(=O)(=O)c2ccc(Cl)cc2)c(-c2ccc(Cl)cc2Cl)n1` as the compound, how does the Potency read?
A: inconclusive [inhibitor, single point]

Q: For `CC(=O)Nc1cccc(-c2ccnc3c2CC(C)(C(=O)NCCc2ccccc2)O3)c1` (stereo unspecified), which Potency is on record?
A: inconclusive [inhibitor, full curve, poor fit]

Q: Which Potency does the source give for `COc1ccc(F)cc1-c1cc(NC=O)c2ncc(-c3cc(OC)c(OC)c(OC)c3)n2c1` here?
A: inconclusive [inhibitor, full curve, poor fit]

Q: With `Cc1ccc(C)n1NC(=O)c1ccc(Cl)cc1Cl` as the compound, how does the Potency read?
A: inconclusive [inhibitor, single point]

Q: `Cc1ccccc1Cn1nnc2sc3c(c2c1=O)CCCC3` was tested. Which Potency did it give?
A: inconclusive [inhibitor, single point]

Q: How did the “activity change, negative = inhibition” value turn out when `COC(=O)c1ccc(NC(=O)CN2CCN(CC#N)CC2)cc1` was run?
A: inactive: 13.7%

Q: How did the Potency turn out when `COC(=O)c1ccc(Cl)cc1NC(=O)NC(C)c1c(-n2cccc2)sc(C)c1C` (stereo unspecified) was run?
A: inconclusive [inhibitor, partial curve, poor fit]

Q: Which Potency does the source give for `CCCCCc1ccc(OCCCC[n+]2cccc(C)c2)c(CCCCC)c1` here?
A: inconclusive [inhibitor, partial curve, poor fit]

Q: With `COc1cc(NC(=O)CN2C(=O)C(c3ccc(Cl)cc3)=NC23CCCCC3)cc(OC)c1` as the compound, how does the Potency read?
A: inconclusive [inhibitor, partial curve, poor fit]

Q: `COc1ccc(C(=O)NCc2c(C)nn(Cc3ccccc3)c2C)cc1S(=O)(=O)N1CCOCC1` was tested. Which Potency did it give?
A: inconclusive [inhibitor, partial curve, poor fit]

Q: With `Cc1ccc(NC(=O)C2CCN(S(=O)(=O)c3ccc4c(c3)NC(=O)C(C)S4)CC2)c(C)c1` (stereo unspecified) as the compound, how does the Potency read?
A: inconclusive [inhibitor, single point]

Q: How did the Potency turn out when `Cc1ccccc1OCC(O)CN1CCN(c2ccccn2)CC1` (stereo unspecified) was run?
A: inconclusive [inhibitor, partial curve, poor fit]

From PubChem BioAssay AID624417 (National Center for Advancing Translational Sciences (NCATS), 2012)
